Measured values reported in paper PMC12136788.
This is one part of the list.

T1: UNK ZnF1-6 (called full-length) (human, UniProt Q9C0B0 30-357)
T1 sequence: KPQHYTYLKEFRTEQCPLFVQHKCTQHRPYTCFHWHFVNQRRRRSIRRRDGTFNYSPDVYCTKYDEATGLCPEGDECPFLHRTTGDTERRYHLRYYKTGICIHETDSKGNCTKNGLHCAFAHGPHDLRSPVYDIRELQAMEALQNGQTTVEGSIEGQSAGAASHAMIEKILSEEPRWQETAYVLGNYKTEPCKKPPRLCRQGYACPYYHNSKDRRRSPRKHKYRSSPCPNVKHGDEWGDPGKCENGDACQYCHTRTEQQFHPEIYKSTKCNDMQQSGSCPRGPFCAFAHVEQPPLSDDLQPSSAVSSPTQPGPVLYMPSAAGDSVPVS

B1: chr3:128622278:128622381:-|CDS|ENSG00000163902|unk|total|mutant (ssRNA)
RNA: GGGAGUUCUACAGUCCGACGAUCAGCCAGGAUGAAGGCCGCCUGCAUCACAGAGCAGGUCUUGACCCUGGUCAACAAGAGAACCGGCCUUUACCGUCACUUUGACGAGACCGUCAACCGGUACAAGCAAUCCCGGGACAUCUCCAACAGAGGAUUGAGCAUCA
B2: chr4:150908776:150908877:-|CDS|ENSG00000198589|msi1|FALSE|bound_elsewhere (ssRNA)
RNA: GGGAGUUCUACAGUCCGACGAUCGUUGAUUUGUACUUAGAUUCUCUUUGUGGCAUACUAUUUAACUGUUUUUAAUUAAUUCUUAGGGUACAUUUAAAUUCAAAGCAGAAAGCGACCUUUUCCUUGCUGAGCAUCACAAACUUUCAACAGAGGAUUGAGCAUCA
B3: chr1:161190761:161190881:-|3pUTR|ENSG00000158859|msi1|FALSE|unique (ssRNA)
RNA: GGGAGUUCUACAGUCCGACGAUCUGCGGGUCACAGGAGGGAGGGGGAAGGCAGGGAGGGCCUGGGCCCCAGUUGUAUUUAUUUAGUAUUUAUUCACUUUUAUUUAGCACCAGGGAAGGGGACAAGGACUAGGGUCCUGGGGAACAACAGAGGAUUGAGCAUCA
B4: chr1:45003092:45003193:-|3pUTR|ENSG00000126107|msi1|FALSE|unique (ssRNA)
RNA: GGGAGUUCUACAGUCCGACGAUCGGAAUCUUCCACAAGCCCAGCACAAGCUGCCAGGCCUGAGCUACUUGAAGGGGGCCAUCUAGGUCCCCAACCCAUGGACUUUGCCUCCAUUUUCAGCUCCGCCUUUUUUCUCCUAUUUUCCAACAGAGGAUUGAGCAUCA
B5: chrX:152990254:152991598:-|CDS|ENSG00000198883|control|control|control (ssRNA)
RNA: GGGAGUUCUACAGUCCGACGAUCAUACAGGGAGGCUUACCCCCAUUAGUGAAACGCAGGCGGCUGUUAGGCAGUGAAAGCACUAGGGGAGAAGACCAUGGCCAGGCCACGUAUCCCAAGGCUGAAAACCAGACUCCAGGCAGGCAACAGAGGAUUGAGCAUCA
B6: chr2:27041412:27041530:+|3pUTR|ENSG00000119777|msi1_unk|total|mutant (ssRNA)
RNA: GGGAGUUCUACAGUCCGACGAUCACUUCAAAAUGCCCAGCCUGCCCCAAAUGCCUCUAAGCCCCUCCCUGUCCCCUCCCUUGCCGUCCUACUUCUUCCAACUUUCCAUUCCCCAUCAUGCUGGGGGUCUUGGUCACAAGGCUCCAACAGAGGAUUGAGCAUCA
B7: chr10:67912576:67912687:+|CDS|ENSG00000096717|unk|total|mutant (ssRNA)
RNA: GGGAGUUCUACAGUCCGACGAUCUUUUGAUGCCGAGCUUCUUGGAGACUGUGAUGUCAUAAUUAAUGAAUUGUGUCACCGGUCCGGUGGUGAAUAUGCCAAACUUUGCUGUAACCCUGUAAAGCUUUCAGAAAUUACUGAAAACAACAGAGGAUUGAGCAUCA
B8: ENSG00000136451:be:win_3101|3pUTR|ENSG00000136451|bound_else_gene|NA|bound_elsewhere_windowed (ssRNA)
RNA: GGGAGUUCUACAGUCCGACGAUCUUCCAUUUAUACCCUACUGUGUCAGUUCAAGCAUCAAAAUACCUUGCAUCUGAGACAGACUUCCUACAUCAGGGACAGGUAUCUGUGUGUCAUUAUACAAAACAGUUCUAGGGGGUUGAACAACAGAGGAUUGAGCAUCA
B9: chr17:75827259:75827360:-|3pUTR|ENSG00000092929|unk|total|mutant (ssRNA)
RNA: GGGAGUUCUACAGUCCGACGAUCGGACAGUUUGGCUGCUGUGUCUGCUGCGCACGCCCCCUCCCCGGACAGCACCUGCCACCCCGAAACUUUCUCCGCAAAAAAAUUAAUAAAAACAAAUCCAUUGUCCUCUUAAAAUAUGCCCAACAGAGGAUUGAGCAUCA
B10: chr14:44928120:44928223:-|3pUTR|ENSG00000179454|unk|FALSE|unique (ssRNA)
RNA: GGGAGUUCUACAGUCCGACGAUCUAGUACAGCAGGCCUCCCAGUGCUGAUGUAAAUAUUUGAGCAGUGUUUAGUACCAUUCUUAGUGCAUAUUAAUUUUUUUAUAUAUCCUUAUAAUUUUAGUUUUUUAAGAUCUUUGCUUUUCAACAGAGGAUUGAGCAUCA
B11: chr7:44121865:44121972:-|CDS|ENSG00000106628|unk|FALSE|unique (ssRNA)
RNA: GGGAGUUCUACAGUCCGACGAUCGUGCCAGUGGCAACCUACACCAACUCCUCACAACCCUUCCGGCUAGGAGAGCGCAGCUUUAGCCGGCAGUAUGCCCACAUUUAUGCCACCCGCCUCAUCCAAAUGAGACCCUUCCUGGAGCAACAGAGGAUUGAGCAUCA
B12: chr2:160273923:160274028:-|3pUTR|ENSG00000153250|unk|total|mutant (ssRNA)
RNA: GGGAGUUCUACAGUCCGACGAUCGGGCUUUUAAAAGGCCGUCAAUAAAAGUUGCUGAAAUUUUGGCUUUUUUAAAUAUGCCGCCGGUGUUUUUAAUGAUUUUUCACAUAAUGUGUAAGGCCGUGAAAUGCAAGAAGGGAAAAACAACAGAGGAUUGAGCAUCA
B13: chr8:108778973:108784180:-|three_prime_utr|ENSG00000164841|control|control|control (ssRNA)
RNA: GGGAGUUCUACAGUCCGACGAUCAAGUUUAUUUCACAAACCAACAGCCAGUAAGUGUUUUUGUUCUCUAUGUGUCUUCUAUUUAGAAGAAAAGCCAUGUAAGAUGUAUAAGAAACCACAACCAGCCACACCUAUCCUUCUGAACAACAGAGGAUUGAGCAUCA
B14: chr9:14719723:14720089:-|three_prime_utr|ENSG00000147869|control|control|control (ssRNA)
RNA: GGGAGUUCUACAGUCCGACGAUCUUCAGUCUGAAAAUGUUAAGUGGGUACAUAACAUUUUCAGGGAAAGGUGACUUGAAACGUAGUUUUAAAUUAGAACGAUAGAGGAAAUGAUAUUAGUCUAGUUAUUGGUACACGUUUGAGCAACAGAGGAUUGAGCAUCA

The binders below were run against T1, UNK ZnF1-6 (called full-length) (assay: nsRBNS (natural sequence RNA bind-n-seq); RBNS binding buffer (assumed for nsRBNS): 25 mM Tris pH 7.5, 150 mM KCl, 3 mM MgCl2, 0.01% Triton X-100, 500 ug/ml BSA, 20 U/ml SUPERase-In, 4 C; UNK is unkempt and MSI1 is Musashi-1; names of the RNAs are library labels; protein concentration not given here; high values mean tight binding).

Binder | binding signal [enrichment R]
B1 | 0.384
B2 | 3.69
B3 | 32.9
B4 | 0.645
B5 | 1.23
B6 | 1.05
B7 | 0.226
B8 | 0.463
B9 | 0.989
B10 | 213
B11 | 0.85
B12 | 0.455
B13 | 0.507
B14 | 2.11
